Source: PMC10874396, “Spatiotemporal and direct capturing global substrates of lysine-modifying enzymes in living cells” (Nature Communications, 2024)

Target: T1, PatZ-L813o-NBAK (E. coli, UniProt P76594 1-886, L813o-NBAK, o-NBAK (o-nitrobenzyl alcohol-derived lysine, unnatural amino acid photo-crosslinker) at 813)
T1 construct: PatZ, protein lysine acetyltransferase of E. coli, amber codon at L813 read as o-NBAK; o-NBAK is a lysine derivative; also called PatZ-L813o-NBAK mutant; o-NBAK encoded enzyme; source: E. coli BL21(DE3), in living cells; also purified (Ni-NTA) for in vitro crosslinking
T1 sequence (looked up): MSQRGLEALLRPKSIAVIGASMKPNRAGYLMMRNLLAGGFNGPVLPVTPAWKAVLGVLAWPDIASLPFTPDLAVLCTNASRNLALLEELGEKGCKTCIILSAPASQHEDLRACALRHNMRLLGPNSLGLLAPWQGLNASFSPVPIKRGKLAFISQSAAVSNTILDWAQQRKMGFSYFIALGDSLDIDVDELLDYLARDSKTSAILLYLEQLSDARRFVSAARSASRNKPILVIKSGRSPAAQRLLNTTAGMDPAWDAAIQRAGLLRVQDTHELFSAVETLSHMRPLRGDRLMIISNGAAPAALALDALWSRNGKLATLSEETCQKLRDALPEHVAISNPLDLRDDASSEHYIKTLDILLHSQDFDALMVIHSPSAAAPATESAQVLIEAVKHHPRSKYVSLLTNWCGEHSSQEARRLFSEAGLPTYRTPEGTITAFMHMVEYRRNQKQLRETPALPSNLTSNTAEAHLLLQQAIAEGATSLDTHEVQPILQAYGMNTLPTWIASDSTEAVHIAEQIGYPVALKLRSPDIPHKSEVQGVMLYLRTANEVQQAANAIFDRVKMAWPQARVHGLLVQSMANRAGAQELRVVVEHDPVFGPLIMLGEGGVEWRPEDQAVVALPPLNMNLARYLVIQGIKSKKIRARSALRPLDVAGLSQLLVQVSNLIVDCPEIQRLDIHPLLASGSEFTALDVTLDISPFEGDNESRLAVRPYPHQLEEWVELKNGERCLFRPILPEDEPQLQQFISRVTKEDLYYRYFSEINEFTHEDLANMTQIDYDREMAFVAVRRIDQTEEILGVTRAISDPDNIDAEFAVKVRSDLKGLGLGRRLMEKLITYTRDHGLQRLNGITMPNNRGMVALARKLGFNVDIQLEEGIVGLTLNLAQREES
Assay: cross-linking; in vitro: purified o-NBAK enzyme mixed with purified partner protein in PBS 150 mM NaCl pH 7.5, 365 nm UV 15 min on ice, SDS-PAGE, extra band cut, LC-MS/MS of crosslinked peptides
Details: both partners purified

B1: IscU (purified recombinant) (natural protein, E. coli, UniProt P0ACD4 1-128, looked up)
chain: MAYSEKVIDHYENPRNVGSFDNNDENVGSGMVGAPACGDVMKLQIKVNDEGIIEDARFKTYGCGSAIASSSLVTEWVKGKSLDEAQAIKNTDIAEELELPPVKIHCSILAEDAIKAAIADYKSKREAK
notes: IscU, E. coli; may be in the Supplementary Information
  binding result: binds
